Results from PubChem BioAssay AID1794842 (National Center for Advancing Translational Sciences (NCATS), 2023).
Among all 2,800 compounds or so, fewer than 10 were called active. Calls come from the whole dose curve; as a rule, active = well fitted curve in the direction sought with a large enough effect; inconclusive = small, poorly fitted or top-dose-only effect, or another doubt; inactive = no such curve, though single readings can be large or run the other way. Some of the results follow.

Biological target: Metallo-beta-lactamase type 2 (Klebsiella pneumoniae) (UniProt C7C422)
Sequence of UniProt C7C422 (C7C422 whole entry, looked up): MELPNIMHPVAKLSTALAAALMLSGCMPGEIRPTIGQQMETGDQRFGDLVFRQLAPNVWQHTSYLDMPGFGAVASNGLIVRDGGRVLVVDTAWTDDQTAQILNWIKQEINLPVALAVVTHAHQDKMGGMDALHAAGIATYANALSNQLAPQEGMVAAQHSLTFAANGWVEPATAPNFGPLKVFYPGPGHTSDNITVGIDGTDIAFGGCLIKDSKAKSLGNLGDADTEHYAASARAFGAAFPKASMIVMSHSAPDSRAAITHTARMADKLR
Assay: qHTS to identify inhibitors of the New Delhi Metallo-beta-lactamase (NDM): Meropenem screen against the machine-based learning selections. Note: % of control where 0% means no effect.
Details: Purified NDM-1, meropenem hydrolysis, absorbance 300 nm; at 38.4 µM (top of the series) unless noted
Outline: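 NDM-1 (2 nM final) in 50 mM HEPES pH 7.0, 1 uM Zn2SO4, 0.01% Tween20 was preincubated with compounds for >30 min. Nitrocefin (16.7 uM final) was read at 485 nm after 15 min, and meropenem (50 uM final) at 300 nm after 30 min.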

Activity change, negative = inhibition, inactive:
Cc1[nH]c2ccc(C(=O)N3CC[C@@](C)(O)[C@@H](O)C3)cc2c1C -1.16%
CCN(CC)Cc1cnc2c(C(=O)N(C)Cc3cc(C)cc(C)n3)cnn2c1 -0.367%
COc1ccc(S(=O)(=O)N2CCC(c3noc(-c4ccncc4)n3)C2)cc1 (stereo not given) 1.02%
Fc1ccc(-c2cnc([C@@H]3COCCN3Cc3cnc4ccccc4c3)[nH]2)cc1 2.48% [at 57.5 µM]
CN1C(=O)[C@@H]2C[C@@H](O)CN2C2(CN(Cc3cccc(F)c3)C2)C1=O 12.6% [at 57.5 µM]
NC(=O)Cc1c[nH]c2ncc(-c3cccc(CO)c3)cc12 6.7% [at 76.7 µM]
O=S(=O)(NC[C@H]1OC[C@@H](NCc2ccccc2F)[C@@H]1O)c1ccccc1 -2.73% [at 57.5 µM]
COCCNC(=O)[C@@H]1CCC[C@@H](NC(=O)c2cc(C)n(C)n2)CN(C)C(=O)C1 -1.1% [at 57.5 µM]
O=C1CCC2(CCCO2)CCN1Cc1ccc(C(F)(F)F)cc1 (stereo not given) -1.6%
O=C(NC[C@H]1O[C@@H](CO)[C@@H](O)[C@H]1N1CCCC1)c1ccc(F)c(Cl)c1 4.45% [at 57.5 µM]
O=C(NCC1CN(Cc2cccnc2)CC12CN(c1ccccc1)C2)Nc1ccccc1 (stereo not given) 0.419% [at 57.5 µM]
Cc1nnc(-c2cc(N3CCN(c4ccccn4)CC3)ccn2)n1C1CCCCC1 -2.36% [at 57.5 µM]
Cc1nn(-c2ccc(C(C)(C)C)cc2)c(C)c1[C@@H]1C=C[C@@H](NC(=O)NCc2ccccc2)C1 0.21% [at 57.5 µM]
CC(C)C(=O)N1CCC(N2C(=O)C3(CCCC3)C2c2ccccc2)CC1 (stereo not given) -2.44%
Cc1cnc(C(=O)N2CCCC(c3nc(-c4cccnc4)no3)CCNC(=O)CC2)cn1 (stereo not given) 11.1%
Cn1cncc1C(=O)N1CC(F)(F)C[C@H]1c1nc(C2CC2)no1 0.163%
COc1ccc(-c2noc([C@@H]3C[C@H](NCc4ccc(N(C)C)cc4)CN3C)n2)cc1 -5.46% [at 57.5 µM]
O=c1[nH]nc(CNCC2(O)CCCNC2)c2ccccc12 (stereo not given) 29%
CC1=C[C@@H](CNC(=O)COc2ccccc2)[C@H](C(C)C)C[C@H]1CC(=O)N1CCN(C)CC1 0.432%
C[S+](=O)([O-])Nc1cccc(Nc2cnc3ccc(-c4ccccc4)nn23)c1 6.77% [at 57.5 µM]
Cc1ccc(C(=O)NC2CCN(c3ccc(F)cc3)C2=O)s1 (stereo not given) 0.556%
O=C1C(c2ccccc2)CC2(CCN(c3cnccn3)CC2)CN1C1CC1 (stereo not given) -3.61%
O=C(NC[C@H]1O[C@@H]2C[C@@H](CC(=O)N3CCOCC3)O[C@@H]2[C@@H]1O)Nc1cccs1 3.46% [at 57.5 µM]
Cc1nc(C(C)C)sc1C(=O)N1CCC(=O)N(CC2CC2)C(C(C)C)C1 (stereo not given) -0.465%
C[C@@H](NS(=O)(=O)c1ccccc1)c1onc(-c2ccccc2)c1C(=O)O 5.46% [at 57.5 µM]
COCCNC(=O)Cc1c[nH]c2ncc(-c3cccnc3)cc12 66.7% [at 57.5 µM]
COc1ccc(-c2cc(N3CCCC(NC(=O)c4cccn4C)C3)n[nH]2)cc1 (stereo not given) -0.774%
CNC(=O)c1cccc(-c2cnc(Nc3cccc(F)c3)c3c2CCO3)c1 4.96% [at 57.5 µM]
CN1C[C@@H]2CCCN3CCC[C@@H]([C@H]23)[C@H]1CCCC(=O)Nc1ccc2c(c1)OCCO2 1.41%
CC1=C[C@@H](CNC(=O)COc2ccccc2)[C@H](C(C)C)C[C@H]1Cc1nnc(-c2cncn2C)o1 1.85%
O=C(NC[C@H]1O[C@@H](CO)[C@@H](O)[C@H]1N1CCOCC1)Nc1ccc(OC(F)(F)F)cc1 29.4%
CN1[C@@H](CCC(=O)N2CCC(O)CC2)CNC(=O)[C@@H]2[C@H]1CCN2Cc1cccc(OC(F)(F)F)c1 0.921%
O=C(O)[C@H]1C[C@@H](C(=O)NCc2ccncc2)CN(C2CCOCC2)C1 11.6%
Cc1ccc(C2(O)CCN(C(=O)c3cnn4cc(CCO)cnc34)CC2)nc1 0.707%
COCC(=O)N[C@H]1C[C@H]2C(=O)NC[C@@H](CCC(=O)N3CCN(c4ccccn4)CC3)N2C1 5.83%
O=C(CN1CC2CC(C1)[C@H]1CCCC(=O)N1C2)NCc1ccc2c(c1)OCO2 (stereo not given in full) 0.0742%
O=C(NCc1csc(-c2cnccn2)n1)C1NCCc2[nH]cnc21 (stereo not given) 15.2%
COc1ccc2nc(CO[C@H]3CN(C4CCC4)C[C@H]3F)[nH]c2c1 -0.689% [at 57.5 µM]
O=C1CO[C@H]2CN(c3nccc(C(F)(F)F)n3)C[C@H]2N1Cc1ccc(F)cc1 -1.3% [at 57.5 µM]
O=C(O)c1cc(Br)cc(S(=O)(=O)NC2CCCCC2)c1 1%
NC(=O)c1cccc(-c2cc3c(cn2)CN(Cc2ccccc2)CCN3)c1 -0.317% [at 57.5 µM]
Cc1cccn2cc(C(=O)N3CCC4(CCCN(CC5CCC5)C4=O)C3)nc12 (stereo not given) 0.979%
CC[C@H]1CN(C(=O)Nc2ccccc2)CC[C@H]1CC(=O)N(C)CC#N -1.89% [at 57.5 µM]
COc1cccc([S+](=O)([O-])N2CCC3(CC2)C(=NC2CCCCC2)NC(=O)N3c2cccnc2)c1 -0.117%
COCC(=O)NC[C@@H]1C=C(C)[C@H](Cc2nc3ccc(C(=O)OC)cc3[nH]2)C[C@H]1C(C)C -3.43% [at 57.5 µM]
O=C(c1ccco1)N1C[C@@H]2C(CN(CC#Cc3ccccc3)C3CC3)[C@@H]2C1 (stereo not given in full) 0.121%
C[C@H]1CCCN1C(=O)c1nnc(CNc2ccc(C(=O)O)cc2)n1-c1ccccc1 17.9% [at 57.5 µM]
COc1cccc(-c2nc3c([nH]2)CN(c2cc(C4CC4)ncn2)CC3)c1 8.18%
N#Cc1cccc(NC(=O)O[C@@H]2CO[C@H]3[C@@H]2OC[C@@H]3Nc2nccc(-c3ccc4c(c3)OCO4)n2)c1 0.41%
Cc1nnc(CN2CCN(C)C3(CCC(=O)N(CC(=O)O)CC3)C2)o1 (stereo not given) 10.7%
COc1ccc(CN2C(=O)[C@@H]3C[C@@H](CN3C3COC3)Oc3ccccc32)cc1 0.128% [at 57.5 µM]
NCCc1cccc(CN2CCCC(COc3ccccc3F)C2)c1 (stereo not given) 0.683%
Cc1ccccc1C(=O)N1C[C@@H](F)C[C@H]1C(=O)N1CCOCC1 -0.824%
COc1ccc2nc3n(c2c1)[C@@H](CNC(=O)NC(C)C)COC3 -1.99% [at 57.5 µM]
Cc1ccc(O)c(CN2CC[C@@H](c3ccc4ccccc4c3)[C@H](O)C2)n1 0.0609%
O=C1CO[C@H](c2ccc(NS(=O)(=O)c3cccc(F)c3)cc2)[C@@H](CO)N1Cc1ccncc1 0.894%
C=CCNC(=O)N[C@H]1CCN(C(=O)CC(C)(C)C)[C@@H]1C(=O)N[C@@H](C(=O)OC)C(C)C 3.86% [at 57.5 µM]
CC(C)CN(C(=O)CC1COc2ccc(C(=O)N(C)C)cc2N1C)C1CC1 (stereo not given) -5.85%
CN1CCN(c2nc3c(s2)CN(C(=O)c2ccccc2)CC3)CC1 1.43%
C[C@@H](NC(=O)[C@@]1(O)C[C@@H](O)[C@H](O)[C@@H](NC(=O)Nc2ccc(OC(F)(F)F)cc2)C1)C(N)=O -4.53%
Cn1ccnc1CNCC1(COc2cccnc2)C[C@@H](O)[C@@H](O)C1 (stereo not given in full) 21%
c1ccc(N2CC3(CN(CC4CC4)CC3CNc3cccnc3)C2)cc1 (stereo not given) 0.558% [at 57.5 µM]
CC(=O)c1[nH]c(C)c(C(=O)N2CCC3(CC2)[C@H](O)C[C@@H]3OCCO)c1C 21%
CN(C)C[C@H]1C[C@@H](CO)CN(C(=O)c2ccccc2OC(F)(F)C(F)F)C1 0.416%
CN(Cc1cc(-c2cccs2)n[nH]1)C(=O)c1cn(CCN)nn1 0.0937%
CN(CCc1ccccn1)[C@@H]1[C@H](O)[C@H](CO)O[C@@H]1CNS(=O)(=O)c1cccs1 48.1%
COc1ccc(-c2cc(-c3cccc(O)c3)cn3cncc23)cc1 26.6% [at 57.5 µM]
Cn1nccc1C(=O)N1CCC(Cc2nc(C3CCOCC3)no2)CC1 0.878%
COC[C@H]1CCCN1C(=O)[C@@H](C)C1CC[C@@]2(C)CC[C@H](NC(=O)CC(C)(C)C)[C@@H](C)[C@@H]2[C@H]1O (stereo not given in full) 0.035%
Oc1ccccc1-c1cnc2n[nH]c(-c3ccc4c(c3)OCO4)c2n1 7.17% [at 57.5 µM]
Cc1cc(C)cc(-c2ccc(C(=O)N3CCC(Oc4cccnc4)CC3)cn2)c1 -0.198%
COc1cccc(CN[C@@H]2CCC[C@@H](C(=O)NC3CCOCC3)CC(=O)N(C)C2)c1 1.5% [at 57.5 µM]
N#Cc1cccnc1N1CCC(NC(=O)c2ccc3cccc(F)c3n2)CC1 0.691%
COCCOc1ncccc1-c1noc([C@@H]2CCCN2CC(C)(C)C)n1 -2.19% [at 57.5 µM]
CSc1ccc(-c2ccc3c(c2)C(=O)N2CCN(C(=O)CCC(=O)O)C[C@@H]2C(=O)N3)cc1 11%
